# Test results: PubChem BioAssay AID1347417 (National Center for Advancing Translational Sciences (NCATS), 2020)
# The campaign covered roughly 120,000 compounds. About 5,300 (4.4%) were called active. This list was built around the results that the source calls inconclusive (neither active nor inactive); the mix of calls is not that of the screen. Calls come from the whole dose curve; as a rule, active = well fitted inhibition curve with a large enough effect; inconclusive = small, poorly fitted or top-dose-only effect; inactive = no such curve, though single readings can be large or run the other way. A potency beside an inconclusive call is a rough fit, not a confirmed value.
# Test: qHTS Primary assay for Inhibitors of Plasmodium falciparum Dd2 growth in vitro; note: nearly all actives have a fitted effect of over 65% in size;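 for activity, negative = inhibition: plate controls were DMSO vehicle for no effect and reference drug for full effect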
# Details: P. falciparum Dd2 growth, SYBR Green, 72 h; activity, negative = inhibition: at 28.9 µM (top of the series) unless noted; series mostly up to 28.9 µM
# Method in brief: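 Infected erythrocytes (Dd2, 0.3% parasitemia, 2.5% hematocrit final) are added to compound in RPMI-1640/Albumax II medium, grown 72 h at 37C in low oxygen, then lysed with saponin/Triton-X containing SYBR Green and read by fluorescence.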
# Potency is the fitted concentration of half-maximal effect; tags give direction and shape of the fitted curve.
Structure (SMILES),Potency,"activity, negative = inhibition",outcome
CCn1cc(C(=O)NCCc2ccc(OC)c(OC)c2)c(=O)c2cc(S(=O)(=O)N3CCOCC3)ccc21,"inconclusive: 12.6 µM [inhibitor, single point]",,
COc1ccc(-c2nc(C3CC3)nc3c2CCN([S+](=O)([O-])c2cccs2)CC3)cc1,"inconclusive: 12.6 µM [inhibitor, partial curve, poor fit]",,
Cc1ccc(-c2cn[nH]c2C2CCCN(C(=O)c3[nH]ncc3Cl)C2)cc1 (stereo not given),"inconclusive: 17.8 µM [inhibitor, single point]",,
CC(C)(Oc1nn(CC2CCOCC2)c2ccccc12)C(=O)NCCc1ccccc1,,inactive: -9.18% [at 44.1 µM],
CN(CCNC(=O)c1cc2cn(C3CC3)cc2s1)C1CCCCC1,"inconclusive: 17.8 µM [inhibitor, single point]",,
Cn1ccnc1CN1C(=O)NC2(CCNCC2)C1=O,,inactive: 2.18%,
Cc1ccccc1NC(=O)CN1C(=O)C2(SCC(=O)N2c2ccc(F)cc2)c2ccccc21 (stereo not given),"inconclusive: 15.8 µM [inhibitor, single point]",,
O=C1C[C@@H]2CCN(C(=O)C3CC3)C[C@@H]2CCN1Cc1ccc2c(c1)OCO2,"inconclusive: 15.8 µM [inhibitor, partial curve, poor fit]",,
COc1ccc(C2(C(=O)N3CCC4(CC3)C(OC)C(=O)N4c3cccc(F)c3)CC2)cc1 (stereo not given),"inconclusive: 17.8 µM [inhibitor, single point]",,
CCN(CC1CCOCC1)C(=O)c1cccnc1SC/C=C/c1ccccc1,"inconclusive: 8.91 µM [inhibitor, partial curve]",,
COc1ccc(-c2cc(CC3(NCCC(C)C)COC3)no2)cc1,"inconclusive: 31.6 µM [inhibitor, single point]",,
Cc1cc(F)ccc1-c1[nH]nc2ncc(-c3cnn(C)c3)nc12,,inactive: -16.7% [at 44.1 µM],
CN(C(=O)c1cccc2ccccc12)C1CCCN(C2Cc3ccccc3C2)C1 (stereo not given),"inconclusive: 8.91 µM [inhibitor, partial curve]",,
COc1ccc2c(CNC3CCCC3)c(C(=O)O)n(Cc3ccccc3C)c2c1,"inconclusive: 10 µM [inhibitor, partial curve]",,
Cc1cc2ncc(C(=O)NCc3cccc4ccccc34)cn2n1,"inconclusive: 7.08 µM [inhibitor, partial curve]",,
CCn1c2ccccc2c2cc(CN3CCN(Cc4ccc(Cl)cc4)CC3)ccc21,"inconclusive: 11.2 µM [inhibitor, single point]",,
CCN(CC)CCCNC(=O)Cn1ncc2c3ccccc3n(Cc3ccccc3)c2c1=O,,inactive: -22%,
CSc1ccc(CNC(=O)c2cc3c(N(C)Cc4ccccc4)nc(C)cn3n2)cc1,"inconclusive: 11.2 µM [inhibitor, single point]",,
CC(=O)Nc1cc(C(=O)NCc2ccc(F)cc2)ccc1S(=O)(=O)c1ccc(C)cc1,,inactive: -19.1%,
O=C(c1cccc(Cl)c1)N1CCCC(n2cc(-c3nc(-c4ccccc4)no3)nn2)C1 (stereo not given),"inconclusive: 1 µM [inhibitor, partial curve]",,
O=C(CCc1ccnc(N2CCCC2)c1)NCc1ccccc1Cl,"inconclusive: 12.6 µM [inhibitor, partial curve, poor fit]",,
CC(C)n1cc(CN2CCOCCNC(=O)CC2)c2ccccc21,"inconclusive: 14.1 µM [inhibitor, partial curve, poor fit]",,

Structure (SMILES),Potency,"activity, negative = inhibition",outcome
CCc1cccc(C)c1NC(=O)CCCn1c(C)c2cnn(-c3ccccc3)c(=O)c2c1C,"inconclusive: 12.6 µM [inhibitor, partial curve]",,
CC(C)CCN1C(=O)CC[C@]2(C(=O)NCc3cccc(Cl)c3)CCCC[C@@H]12,"inconclusive: 17.8 µM [inhibitor, single point]",,
CCOC(=O)c1[nH]c(C)c(CCC(=O)Nc2ccccc2OCC)c1C,"inconclusive: 14.1 µM [inhibitor, partial curve]",,
Cc1ccc2oc(-c3ccc(Cl)cc3)c(O)c(=O)c2c1,"inconclusive: 10 µM [inhibitor, single point]",,
COc1ccc(-c2c(C)nn3c(-c4ccccc4)cc(C)nc23)cc1OC,"inconclusive: 17.8 µM [inhibitor, single point]",,
O=C(Cn1ncc2c3ccccc3n(Cc3cccc(Cl)c3)c2c1=O)NCCCc1ccccc1,,inactive: -6.07%,
O=C(COc1ccccc1)N[C@H]1CO[C@H]2[C@@H]1OC[C@@H]2n1nnnc1-c1ccc2c(c1)OCO2,,inactive: 3.75%,
CCc1nc(Nc2ccc(F)c(Cl)c2)c2c3c(sc2n1)CCCC3,"inconclusive: 17.8 µM [inhibitor, single point]",,
Cc1ccc(C)c(-n2nc(-c3c(C)nc4scc(CC(=O)N5CCCC5)n4c3=O)cc2C)c1,"inconclusive: 15.8 µM [inhibitor, single point]",,
COc1ccc(CNC(=O)c2c(C)noc2-c2cccs2)cc1,,inactive: -15.2%,
CCc1ccccc1NC(=O)CN1C(=O)C2CCCN2c2ccc(S(=O)(=O)N(CC)CC)cc21 (stereo not given),"inconclusive: 17.8 µM [inhibitor, single point]",,
O=C(c1cc(F)cc(F)c1)N1C[C@@H](CO)[C@H](c2nc(C3CC3)no2)C1,"inconclusive: 7.08 µM [inhibitor, partial curve, poor fit]",,
Fc1ccc(OC2CN(Cc3ccccc3)C2)cc1F,"inconclusive: 11.2 µM [inhibitor, single point]",,
COc1cccc(N2C(=O)C(CC(=O)Nc3ccccc3)N(CCc3sccc3C)C2=O)c1 (stereo not given),"inconclusive: 0.0355 µM [inhibitor, full curve, poor fit]",,
CC(C)c1ccc(C(=O)N2CCC[C@H]2c2nc(-c3ccccc3)no2)cc1,"inconclusive: 2.82 µM [inhibitor, single point]",,
Cc1nnc2n1C(C)CN(C(=O)CCc1nc(-c3ccncc3)no1)C2 (stereo not given),,inactive: -1.65%,
COc1cc(-c2onc(C)c2C(=O)NCc2ccc(F)cc2F)cc(OC)c1OC,,,inactive
O=C(c1ccc(-n2ccnc2)cc1)N1CCN(c2cccc(Cl)c2)C(=O)C1,,inactive: 1.87%,
CC(=O)N1CC2(CCCN(CC3CCCCC3)C2)Cc2ccccc21 (stereo not given),active: 10 µM,,
CCCSc1ncc(CN2CCCC(c3nnc(CN(C)C)n3C)C2)cn1 (stereo not given),,inactive: 8.3%,
O=C(NC1CCN(c2cc(-c3ccc(Cl)cc3)[nH]n2)C1)c1ccc(F)c(F)c1 (stereo not given),"inconclusive: 15.8 µM [inhibitor, single point]",,
Cc1cc(=O)n(CC(=O)N2CCCc3ccccc32)c2c1c(C)nn2-c1cccc(F)c1,"inconclusive: 17.8 µM [inhibitor, single point]",,

Structure (SMILES),Potency,"activity, negative = inhibition",outcome
O=C(NCCc1ccc(F)cc1)C(=O)NCC(c1cccs1)S(=O)(=O)c1ccc(Cl)cc1 (stereo not given),,inactive: -14.1%,
Cc1c(CNC2CCC(C)CC2)c(C(=O)O)c(C)n1Cc1ccc(Cl)cc1 (stereo not given),"inconclusive: 17.8 µM [inhibitor, single point]",,
CCS(=O)(=O)N(C1CC1)C1CCOC2(CCN(C(=O)c3cccc(C)c3)CC2)C1 (stereo not given),,inactive: -8.83%,
CCOC(=O)C(CC)Sc1ncnc2c1c(-c1ccccc1)cn2-c1ccc(OC)cc1 (stereo not given),"inconclusive: 12.6 µM [inhibitor, single point]",,
Cc1cccc(NC(=O)C2CCN(C(=O)c3ncn4c3COC(c3ccc(F)cc3)C4)CC2)c1C (stereo not given),,,inactive
O=C(NC1CC1)C1CC(=O)N(c2n[nH]c3cccc(F)c23)C1 (stereo not given),,inactive: -4.07%,
Cc1nc(-c2ccccc2)n(CC(=O)Nc2ccc(F)cc2)c(=O)c1CCO,"inconclusive: 2.82 µM [inhibitor, single point]",,
Cc1cccc(Cn2cc(/C=C(/C#N)C(=O)Nc3cccc(Cl)c3)c3ccccc32)c1,active: 3.55 µM,,
O=C1NCCCCCCN(Cc2ccncc2)[C@@H]2CN(C(=O)CCc3ccccc3)CC[C@@H]12,"inconclusive: 7.08 µM [inhibitor, partial curve, poor fit]",,
CN(C)C[C@@H]1CN(c2ncccn2)C[C@H]1NS(=O)(=O)c1ccc(Cl)cc1,"inconclusive: 1.26 µM [inhibitor, partial curve, poor fit]",,
COc1ccc(C[C@H](NC(=O)[C@@]2(O)C[C@@H](O)[C@H](O)[C@@H](NC(=O)Cc3cccs3)C2)C(N)=O)cc1,,inactive: -4.61%,
O=C(CN1C(=O)NC2(CCOCC2)C1=O)Nc1ccccc1Cl,,inactive: 46.8%,
COc1cccc(-c2nc(SCC(=O)NCC3CCCO3)c(-c3ccc(C)cc3)[nH]2)c1 (stereo not given),"inconclusive: 17.8 µM [inhibitor, single point]",,
CCOc1ccc(NC(=O)c2cc3c(C)nn(-c4ccccc4)c3s2)cc1,"inconclusive: 17.8 µM [inhibitor, single point]",,
COc1cc(NC(=O)CN2C(=O)NC3(CCCCC3)C2=O)cc(OC)c1,"inconclusive: 8.91 µM [inhibitor, single point]",,
COCCNC(=O)c1coc(COc2ccc3c(c2)C(c2ccc(F)cc2)N(C(=O)C(C)C)CC3)n1 (stereo not given),"inconclusive: 3.98 µM [inhibitor, single point]",,
Cc1nc(-c2c3n(c(=O)n(CC(=O)Nc4ccc(F)c(Cl)c4)c2=O)CCCC3)no1,,inactive: -16.6%,
O=c1[nH]c(C2CCCN([S+](=O)([O-])c3cccc(C(F)(F)F)c3)C2)nn1-c1cccc(Cl)c1 (stereo not given),,,inactive
CCOc1ccc(CCNC(=O)c2c(C)oc3ncn(CC(C)C)c(=O)c23)cc1,"inconclusive: 20 µM [inhibitor, single point]",,
Cc1cccc(-c2nc(S(=O)(=O)c3ccc(Cl)cc3)c(N3CCCCCC3)o2)c1,"inconclusive: 17.8 µM [inhibitor, single point]",,
COCCn1ncc(N2CCC(C(=O)N3CCC(C(N)=O)(N4CCCCC4)CC3)C2)cc1=O (stereo not given),,inactive: 14.3%,
